About 2,200 (0.71%) of roughly 310,000 compounds showed an effect of 50% or more. Effects have a minus sign here. The list shows a part of the results.
The compounds below were run against human ether-à-go-go-related gene (hERG) potassium channel (human, UniProt Q12809) (assay: primary screen, population patch clamp on CHO cells stably expressing hERG).
Chain of human ether-à-go-go-related gene (hERG) potassium channel (Q12809 whole entry, looked up): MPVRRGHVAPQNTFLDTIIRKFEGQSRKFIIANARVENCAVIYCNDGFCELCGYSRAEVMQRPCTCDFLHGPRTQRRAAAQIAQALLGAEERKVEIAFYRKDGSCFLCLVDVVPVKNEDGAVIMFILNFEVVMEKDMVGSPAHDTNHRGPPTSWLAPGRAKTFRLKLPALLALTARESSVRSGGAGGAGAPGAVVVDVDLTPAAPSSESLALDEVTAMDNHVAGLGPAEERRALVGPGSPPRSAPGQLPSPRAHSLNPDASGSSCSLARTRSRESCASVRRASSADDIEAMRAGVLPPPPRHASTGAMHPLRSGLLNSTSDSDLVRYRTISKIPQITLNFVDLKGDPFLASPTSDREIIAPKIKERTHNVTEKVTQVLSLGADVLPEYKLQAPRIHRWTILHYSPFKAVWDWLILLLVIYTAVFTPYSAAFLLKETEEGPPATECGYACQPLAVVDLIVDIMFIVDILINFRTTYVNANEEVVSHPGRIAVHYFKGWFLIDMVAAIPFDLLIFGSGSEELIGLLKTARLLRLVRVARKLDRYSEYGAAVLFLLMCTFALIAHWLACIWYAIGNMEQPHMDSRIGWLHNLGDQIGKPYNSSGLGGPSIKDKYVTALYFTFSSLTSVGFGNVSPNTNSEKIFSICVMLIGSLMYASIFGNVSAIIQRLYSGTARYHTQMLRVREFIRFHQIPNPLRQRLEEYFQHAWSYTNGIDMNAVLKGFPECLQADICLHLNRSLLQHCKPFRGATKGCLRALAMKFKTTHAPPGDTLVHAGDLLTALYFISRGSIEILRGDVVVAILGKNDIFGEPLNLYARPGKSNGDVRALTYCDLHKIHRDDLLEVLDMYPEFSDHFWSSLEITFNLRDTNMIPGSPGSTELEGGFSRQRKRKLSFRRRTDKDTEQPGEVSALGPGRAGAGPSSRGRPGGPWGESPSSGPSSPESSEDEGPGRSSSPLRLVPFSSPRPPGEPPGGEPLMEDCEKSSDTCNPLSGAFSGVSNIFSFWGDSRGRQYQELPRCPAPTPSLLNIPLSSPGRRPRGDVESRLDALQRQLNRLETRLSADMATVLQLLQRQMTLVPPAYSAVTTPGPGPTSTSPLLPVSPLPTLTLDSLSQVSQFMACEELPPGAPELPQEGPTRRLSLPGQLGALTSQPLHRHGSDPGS

| SMILES | hERG current change (%, negative = inhibition) at 1uM |
| --- | --- |
| CCC1CCCCN1C(=S)Nc1ccc(SC(F)F)cc1 (centres unmarked) | -17.1% |
| O=C(NCCCn1ccnc1)C1CC2CCC1C2 (centres unmarked) | -0.331% |
| Cc1cccc(C(=O)NCC(=O)NC2CCN(Cc3ccccc3)CC2)c1 | 15.2% |
| Cc1ccc2occ(-c3nn[nH]n3)c(=O)c2c1 | 10.3% |
| CCNC(=S)N(CCc1c(C)[nH]c2ccccc12)Cc1cc(OC)c(OC)c(OC)c1 | 8.89% |
| CCCC(=O)Nc1nnc(SCC(=O)NCc2ccco2)s1 | 12.1% |
| Cc1cc(C)n(-c2ccc3nnc(C)n3n2)n1 | 11.7% |
| CCOc1ccc2[nH]c(=O)c(CN(Cc3nnnn3Cc3ccco3)C3CCCCC3)cc2c1 | 10.7% |
| Cc1cc(C)c2cccc(NC(=S)NC(=O)c3ccccc3)c2n1 | -21.2% |
| O=C(COC(=O)c1ccc(F)cc1F)NC(=O)Nc1ccc2c(c1)OCCO2 | 14.1% |
| Cc1ccnc(NS(=O)(=O)c2ccc(NC(=O)Cc3ccc(F)cc3)cc2)n1 | 14.5% |
| COc1cc(C)c(S(=O)(=O)NC2CC(C)(C)NC(C)(C)C2)cc1C | 9.51% |
| CC(=O)Nc1ccc(C(=O)N/C(=C/c2ccccc2)C(=O)NCc2ccco2)cc1 | 12.4% |
| CCN(CC)Cc1c(C(=O)N/N=C/c2ccc(OCc3ccccc3C)cc2)nnn1-c1nonc1N | -1.92% |
| O=C(C1=C[C@@H](c2ccc(C(F)(F)F)cc2)C[C@@H](OCc2ccc(CO)cc2)O1)N1CCOCC1 | 2.55% |
| O=C(CSCc1ccc([N+](=O)[O-])cc1)NCCSCc1ccccc1 | -14.8% |
| Cc1cc(C)c(OCCCCN(C)C)c(Br)c1.O=C(O)C(=O)O | 1.33% |
| COCCCNC(=O)/C=C/c1cccc(Cl)c1 | 7.31% |
| O=c1c(F)cn(C2CCCO2)c(=O)n1Cc1c(Cl)cccc1Cl (centres unmarked) | -1.82% |
| CCN(CC)C(=O)OCc1c(-c2cccc(OC)c2)ncc2ccccc12 | 10.4% |
| CCOC(=O)N1CCc2c(sc3c2c(=O)n(Cc2ccccc2)c(=O)n3Cc2cccc(C)c2)C1 | 5.19% |
| O=C(c1ccccc1F)N1CCC(N2CCCCCC2)CC1 | -2.42% |

| SMILES | hERG current change (%, negative = inhibition) at 1uM |
| --- | --- |
| CC(=O)Nc1cccc(C(=O)N/N=C/c2cccc(C)n2)c1 | 16% |
| Cc1c(C(=O)N(Cc2ccc(Cl)cc2)C2CCS(=O)(=O)C2)oc2ccccc12 (centres unmarked) | 6.06% |
| COc1ccc(-n2cnnc2SCC(=O)Nc2nc(C)c(Cl)cc2Cl)cc1 | -8.71% |
| COCc1c(C(=O)N/N=C\c2ccccn2)nnn1-c1nonc1N | 14.5% |
| CCOc1ccc(-c2c(C(=O)N/N=C/c3cccc(Br)c3)nnn2-c2nonc2N)cc1 | 9.11% |
| CN(CCOc1ccc(-c2ccn(S(=O)(=O)c3cccc4ccccc34)n2)cc1)c1ccccn1 | 12.5% |
| CCCCn1c(N)c(N(CC(C)C)C(=O)CSc2nnc(C)n2-c2ccc(OC)cc2)c(=O)[nH]c1=O | 9.69% |
| NC(=O)c1cc(S(=O)(=O)N2CCCC2)ccc1OCCOc1ccccc1 | 7.4% |
| Nc1cccc(-c2nc3ncccc3o2)c1 | 14.4% |
| Cc1cccc(C(=O)NCC(c2cccs2)N2CCOCC2)c1 (centres unmarked) | 17.6% |
| CCn1ncc(/C=N\NC(=O)c2csc3ccccc23)c1C | 10.1% |
| O=C(CSc1n[nH]c(=O)n1C1CC1)c1ccc(F)cc1 | 7.86% |
| COc1ccc(C(=O)NCC(c2cccnc2)N2CCN(c3ccc(F)cc3)CC2)cc1OC (centres unmarked) | -18.3% |
| COc1ccc2c(Cl)c(C(N)=O)sc2c1 | 5.78% |
| CC1CCCC(C)N1C(=O)Cn1cnc2cc([N+](=O)[O-])ccc2c1=O (centres unmarked) | 7.78% |
| Cc1cccc(CCN2CCN=C2Nc2ccccc2)c1 | 1.25% |
| NC(N)=NS(=O)(=O)c1ccc(NC(=S)NC(=O)c2ccncc2)cc1 | 4.18% |
| Cc1nnc(SCC(=O)N(C)c2ccccc2)n1-n1cccc1 | 12.9% |
| O=C(CCC(=O)N1CCN(S(=O)(=O)c2ccc(Cl)cc2)CC1)NCc1ccccc1 | 10.1% |
| O=C(NC1CCCC1)C(c1ccccn1)N(Cc1ccc(F)cc1)C(=O)c1csnn1 (centres unmarked) | 7.39% |
| CC1(C)CC(=O)C2=C(C1)N(c1ccc(F)cc1)C(=O)C2(NC(=O)c1ccccc1)C(F)(F)F (centres unmarked) | 10.7% |
| O=c1c2ccccc2c(C=NCCO)c(O)n1-c1ccccc1 | 11% |
